Test results taken from the supplement of paper PMC8728848.
The list shows a part of the results.

How the values were obtained:
Assay in all cases: glycan array binding signal (z-score within array); higher = stronger binding
Conditions in all cases: glycan notation: IUPAC condensed, linker removed; mutation: F335Y
[1] = target: Gal(b1-3)GlcNAc
In short: (§1)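 Glycan array binding is given as a within-array Z-score, which can be read as non-binding when negative. The arrays, 3228 of them, came from the Consortium for Functional Glycomics database and were retained only where the protein sequence was available. Z-scores were averaged across arrays of the same protein sequence at different concentrations or buffers and across linkers.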

[2] = target: Gal(b1-3)GlcNAc(b1-2)Man(a1-3)[Gal(b1-3)GlcNAc(b1-2)Man(a1-6)]Man(b1-4)GlcNAc(b1-4)GlcNAc
In short: as §1

[3] = target: Gal(b1-3)GlcNAc(b1-3)Gal(b1-3)GlcNAc
In short: as §1

[4] = target: Gal(b1-3)GlcNAc(b1-3)Gal(b1-4)Glc
In short: as §1

[5] = target: Gal(b1-3)GlcNAc(b1-3)Gal(b1-4)GlcNAc
In short: as §1

[6] = target: Gal(b1-3)[Fuc(a1-4)]GlcNAc
In short: as §1

[7] = target: Gal(b1-3)[Fuc(a1-4)]GlcNAc(b1-3)Gal(b1-3)[Fuc(a1-4)]GlcNAc
In short: as §1

[8] = target: Gal(b1-3)[Fuc(a1-4)]GlcNAc(b1-3)Gal(b1-4)GlcNAc
In short: as §1

[9] = target: Gal(b1-3)[Fuc(a1-4)]GlcNAc(b1-3)Gal(b1-4)[Fuc(a1-3)]GlcNAc
In short: as §1

[10] = target: Gal(b1-3)[GlcNAc(b1-6)]GalNAc
In short: as §1

[11] = target: Gal(b1-3)[Neu5Ac(a2-6)]GalNAc
In short: as §1

[12] = target: Gal(b1-3)[Neu5Ac(a2-6)]GlcNAc(b1-6)Gal(b1-4)Glc
In short: as §1

[13] = target: Gal(b1-3)[Neu5Ac(b2-6)]GalNAc
In short: as §1

[14] = target: Gal(b1-4)GalNAc(a1-3)[Fuc(a1-2)]Gal(b1-4)GlcNAc
In short: as §1

[15] = target: Gal(b1-4)GalNAc(b1-3)[Fuc(a1-2)]Gal(b1-4)GlcNAc
In short: as §1

[16] = target: Gal(b1-4)Glc
In short: as §1

[17] = target: Gal(b1-4)Glc6S
In short: as §1

[18] = target: Gal(b1-4)GlcNAc
In short: as §1

[19] = target: Gal(b1-4)GlcNAc(a1-6)Gal(b1-4)GlcNAc
In short: as §1

[20] = target: Gal(b1-4)GlcNAc(b1-2)Man(a1-3)[Gal(b1-4)GlcNAc(b1-2)Man(a1-6)]Man(b1-4)GlcNAc(b1-4)GlcNAc
In short: as §1

[21] = target: Gal(b1-4)GlcNAc(b1-3)Gal(b1-3)GlcNAc
In short: as §1

[22] = target: Gal(b1-4)GlcNAc(b1-3)Gal(b1-4)Glc
In short: as §1

[23] = target: Gal(b1-4)GlcNAc(b1-3)Gal(b1-4)GlcNAc
In short: as §1

[24] = target: Gal(b1-4)GlcNAc(b1-3)Gal(b1-4)GlcNAc(b1-3)Gal(b1-4)GlcNAc
In short: as §1

[25] = target: Gal(b1-4)GlcNAc(b1-3)Gal(b1-4)[Fuc(a1-3)]GlcNAc(b1-3)Gal(b1-4)[Fuc(a1-3)]GlcNAc
In short: as §1

[26] = target: Gal(b1-4)GlcNAc(b1-3)GalNAc
In short: as §1

[27] = target: Gal(b1-4)GlcNAc(b1-3)[Gal(b1-4)GlcNAc(b1-6)]Gal(b1-4)GlcNAc
In short: as §1

[28] = target: Gal(b1-4)GlcNAc(b1-3)[GlcNAc(b1-6)]Gal(b1-4)GlcNAc
In short: as §1

[29] = target: Gal(b1-4)GlcNAc(b1-6)Gal(b1-4)GlcNAc
In short: as §1

[30] = target: Gal(b1-4)GlcNAc(b1-6)Gal(b1-4)GlcNAc(b1-6)GalNAc
In short: as §1

[31] = target: Gal(b1-4)GlcNAc(b1-6)GalNAc
In short: as §1

[32] = target: Gal(b1-4)GlcNAc(b1-6)[Gal(b1-3)]GalNAc
In short: as §1

[33] = target: Gal3S(b1-3)GalNAc
In short: as §1

[34] = target: Gal3S(b1-3)GlcNAc
In short: as §1

[35] = target: Gal3S(b1-3)[Fuc(a1-4)]GlcNAc
In short: as §1

[36] = target: Gal3S(b1-4)Glc
In short: as §1

[37] = target: Gal3S(b1-4)Glc6S
In short: as §1

[38] = target: Gal3S(b1-4)GlcNAc
In short: as §1

B1: Surfactant Protein D (Human); Neck + Carbohydrate Recognition Domain (NCRD) (Homo sapiens) (protein)
chain: MLLFLLSALVLLTQPLGYLEAEMKTYSHRTMPSACTLVMCSSVESGLPGRDRDGREGPRGEKGDPGLPGAAGQAGMPGQAGPVGPKGDNGSVGEPGPKGDTGPSGPPGPPGVPGPAGREGALGKQGNIGPQGKPGPKGEAGPKGEVGAPGMQGSAGARGLAGPKGERGVPGERGVPGNTGAAGSAGAMGPQGSPGARGPPGLKGDKGIPGDKGAKGESGLPDVASLRQQVEALQGQVQHLQAAFSQYKKVELFPNGQSVGEKIFKTAQFVKPFTEAQLLCTQAGGQLASPRSAAENAALQQLVVAKNEAAFLSMTDSKTEGKFTYPTGESLVYSNWAPGEPNDDGGSEDCVEIYTNGKWNDRACGEKRLVVCEF
glycan array binding signal (z-score) [1]: -0.182
glycan array binding signal (z-score) [2]: -0.191
glycan array binding signal (z-score) [3]: -0.188
glycan array binding signal (z-score) [4]: -0.194
glycan array binding signal (z-score) [5]: -0.19
glycan array binding signal (z-score) [6]: -0.187
glycan array binding signal (z-score) [7]: 0.096
glycan array binding signal (z-score) [8]: -0.075
glycan array binding signal (z-score) [9]: -0.194
glycan array binding signal (z-score) [10]: -0.185
glycan array binding signal (z-score) [11]: -0.191
glycan array binding signal (z-score) [12]: -0.188
glycan array binding signal (z-score) [13]: -0.19
glycan array binding signal (z-score) [14]: -0.182
glycan array binding signal (z-score) [15]: -0.167
glycan array binding signal (z-score) [16]: -0.187
glycan array binding signal (z-score) [17]: -0.175
glycan array binding signal (z-score) [18]: -0.184
glycan array binding signal (z-score) [19]: -0.191
glycan array binding signal (z-score) [20]: -0.185
glycan array binding signal (z-score) [21]: -0.189
glycan array binding signal (z-score) [22]: -0.193
glycan array binding signal (z-score) [23]: -0.192
glycan array binding signal (z-score) [24]: -0.188
glycan array binding signal (z-score) [25]: -0.172
glycan array binding signal (z-score) [26]: -0.191
glycan array binding signal (z-score) [27]: -0.188
glycan array binding signal (z-score) [28]: -0.191
glycan array binding signal (z-score) [29]: -0.192
glycan array binding signal (z-score) [30]: -0.185
glycan array binding signal (z-score) [31]: -0.191
glycan array binding signal (z-score) [32]: -0.185
glycan array binding signal (z-score) [33]: -0.193
glycan array binding signal (z-score) [34]: -0.185
glycan array binding signal (z-score) [35]: -0.187
glycan array binding signal (z-score) [36]: -0.174
glycan array binding signal (z-score) [37]: -0.171
glycan array binding signal (z-score) [38]: -0.187
